Test results as given in a collection of fitness landscapes (doi:10.1016/j.celrep.2020.107928).
The full ranking holds about 81,000 sequences; the median of “one-hybrid fitness for binding parS DNA” is about -0.17, and the highest 2% start at about 0.51. This is one part of the list.

B1: Caulobacter ParB omega fusion; a variant is named by its letters at X, in order, B8GW30 (parent)
chain: MESVVVGEPGMSEGRRGLGRGLSALLGEVDAAPAQAPGEQLGGSREAPIEILQRNPDQPRRTFREEDLEDLSNSIREKGVLQPILVRPSPDTAGEYQIVAGERAWRAAQRAGLKTVPIMVRELDDLAVLEIGIIENVQRADLNVLEEALSYKVLMEKFERTQENIAQTIGKSXSHVANXMRLLXLPDEVQSYLVSGELTAXHARAIAAAADPVALAKQIIEGGLSVRETEALARKAPNLSAGKSKGGRPPRVKDTDTQALESDLSSVLGLDVSIDHRGSTGTLTITYATLEQLDDLCNRLTRGI

Variants of: B1
Assay: one-hybrid fitness for binding parS DNA (scaled: cognate 1, non-cognate 0); higher = stronger binding
Details: with parS DNA site
Method in brief: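 Fitness is the rescaled log change in variant-to-wild-type read ratio, measured by Illumina sequencing of plasmids before and after bacterial one-hybrid selection. The scale puts cognate at 1 and non-cognate at 0. Selection of Caulobacter ParB libraries, four specificity codons randomised, took place in E. coli USO with a HIS3 reporter, site 19 bp from the promoter, over 48 hours at 37°C on M9-minus-histidine with 0.1 mM IPTG and 5 mM 3-AT.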

one-hybrid fitness for binding parS DNA, 1.02:
RMTG
RYFS

one-hybrid fitness for binding parS DNA, ≤ 0.2:
VKDG
DERG
RKGK
QFTC
SQQT
DQSG
LMHV
QIAF
KQTD
RIVH
KNYR
KNLK
FQDR
CFHV
KYKG
VEIC
MGCL
NDNN
LDQL
HNLA
CTEA
YAQG
VGMG
RTDR
SQRV
CTCE
WTIC
SQVH
WQNS
WFPS
PEAS
QTEV
HLTK
PECV
MLKS
YGST
DGDT
RNPF
TFGF
QEHR
EPNG
LQKV
KIGR
GQAT
KALG
KRWW
SNNP
TAPY
FPRH
RIQQ
LSTR
PNAV
CLDR
PIQR
KVNE
SGAT
VSAM
YKPF
MSYG
GHLS
GLAW
AHHV
RVRI
HAAW
TMYI
YSQV
VSCK
RTYP
PAKM
KRSR
PTTN
YLQW
PDYS
RWMR
EYHR
TITV
HQGS
GFLG
PQTM
HPIA
NEGN
KVSK
TLAP
FMSG
SIPW
VSCA
NDNR
PDGI
FDPG
TPCG
NWER
SVIV
TSYC
CCKR
TNWA
QIRF
NLTT
SYLH
YDFW
DQSA
PCDK
MPNF
GITT
RQQE
LNPR
NSQE
SMDN
DYIR
HIWE
QKPS
YHCG
NKDT
RKFI
NWRT
THTN
NGLW
LPIC
CSVC
VMGG
QHKL
GGFE
PQNG
PAFA
IIYN
DTQV
HRGP
IRSE
GIKM
NRYT
ITRD
RNTD
QPPF
ARSM
FGDW
CDRS
STAA
APRT
ANHM
TVDM
CTDA
EWCS
GGTW
QIWL
HLQA
HKRK
QFGP

one-hybrid fitness for binding parS DNA, 0.501:
RRRA

one-hybrid fitness for binding parS DNA, 0.213:
IGDS

one-hybrid fitness for binding parS DNA, 0.227:
RDKI

one-hybrid fitness for binding parS DNA, 0.24:
RAHF

one-hybrid fitness for binding parS DNA, 0.506:
RMMY
